Target: the molecule itself
Test: SEC + other: velocity sedimentation in sucrose gradients

B1: She2 (L130Y)-1/2TAP (natural protein)
chain: not shown
stoichiometry N: ~2

Source: publication PMC2872910 (The Journal of Cell Biology, 2010)
